# Results reported in paper PMC4336329 (PLoS ONE, 2015).
# In all, about 310,000 compounds went through this assay and about 14,000 (4.5%) showed an effect of 50% or more. Effects have a minus sign here. The list shows a part of the results.
# Target: human ether-à-go-go-related gene (hERG) potassium channel (human, UniProt Q12809)
# Experiment: primary screen, population patch clamp on CHO cells stably expressing hERG
# 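Note: peak tail current of the secondary pulse compared with the same well before compound.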
# Sequence of human ether-à-go-go-related gene (hERG) potassium channel (Q12809 whole entry, looked up): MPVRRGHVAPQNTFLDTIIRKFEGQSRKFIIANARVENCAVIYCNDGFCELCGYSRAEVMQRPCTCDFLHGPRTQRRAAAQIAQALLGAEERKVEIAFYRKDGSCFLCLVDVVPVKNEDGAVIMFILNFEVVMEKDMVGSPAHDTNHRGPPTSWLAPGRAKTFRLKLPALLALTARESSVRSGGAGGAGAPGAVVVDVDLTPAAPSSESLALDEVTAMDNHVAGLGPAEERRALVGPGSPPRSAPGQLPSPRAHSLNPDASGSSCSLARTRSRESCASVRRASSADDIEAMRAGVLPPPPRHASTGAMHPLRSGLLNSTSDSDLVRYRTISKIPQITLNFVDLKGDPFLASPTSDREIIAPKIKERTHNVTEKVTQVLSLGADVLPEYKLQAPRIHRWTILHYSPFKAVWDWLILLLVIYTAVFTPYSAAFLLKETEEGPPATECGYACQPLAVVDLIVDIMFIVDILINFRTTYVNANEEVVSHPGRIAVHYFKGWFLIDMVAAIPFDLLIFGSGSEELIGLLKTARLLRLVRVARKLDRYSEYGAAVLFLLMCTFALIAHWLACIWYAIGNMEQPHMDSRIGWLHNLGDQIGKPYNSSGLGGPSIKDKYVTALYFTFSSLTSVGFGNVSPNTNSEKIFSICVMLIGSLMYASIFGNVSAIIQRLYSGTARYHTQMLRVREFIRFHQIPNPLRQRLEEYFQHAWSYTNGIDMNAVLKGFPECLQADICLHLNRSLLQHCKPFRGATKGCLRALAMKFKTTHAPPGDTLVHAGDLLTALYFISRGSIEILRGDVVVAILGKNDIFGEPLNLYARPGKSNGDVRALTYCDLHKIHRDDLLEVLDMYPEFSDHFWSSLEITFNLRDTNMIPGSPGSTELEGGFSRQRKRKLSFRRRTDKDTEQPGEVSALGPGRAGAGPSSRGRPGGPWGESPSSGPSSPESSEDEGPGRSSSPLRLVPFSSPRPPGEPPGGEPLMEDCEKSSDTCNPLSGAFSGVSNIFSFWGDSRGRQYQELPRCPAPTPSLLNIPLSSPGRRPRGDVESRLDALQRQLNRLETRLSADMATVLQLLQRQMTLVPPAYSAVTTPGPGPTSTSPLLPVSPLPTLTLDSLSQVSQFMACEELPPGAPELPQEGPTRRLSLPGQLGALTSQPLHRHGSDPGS
row,SMILES,"hERG current change (%, negative = inhibition) at 10uM [%]"
1,CCOC(=O)NC(O)C(=O)c1ccc(F)cc1 (stereo not drawn),14.8
2,COc1ccc(N=Nc2nc(-c3ccccc3)c(-c3ccccc3)[nH]2)cc1,-6.99
3,Cc1ccc(NC(N)=S)cc1,15
4,CCOc1ccc(-n2cc(-c3ccccc3)c3c(SC(C)C(=O)OC)ncnc32)cc1 (stereo not drawn),28.9
5,Cc1ccc(CNC(=O)C2CCCN(C(=O)Nc3ccc(F)cc3)C2)cc1 (stereo not drawn),1.95
6,O=C1/C(=C/c2cccnc2)Oc2cc(OS(=O)(=O)c3ccc(Cl)cc3)ccc21,-4.17
7,Cc1ccc(NS(=O)(=O)c2ccc3c(c2)oc(=O)n3C)cc1F,9.75
8,Cc1ccccc1Cn1c(CN2CCN(C(=O)c3ccco3)CC2)nc2c1c(=O)n(C)c(=O)n2C,-45
9,C[C@H]1CCC[C@]2(C)C[C@H]3OC(=O)C(CN4CCCCCC4)[C@H]3C=C12 (stereo partly drawn),-6.66
10,Cc1cccc(N(CC(=O)NCc2ccc(F)cc2)C(=O)c2csnn2)c1C,-48
11,CCOC(=O)C(NC(=O)c1ccc(F)cc1)(Nc1sc2c(c1C(N)=O)CCC2)C(F)(F)F (stereo not drawn),3.06
12,COc1ccc(C2N3CC(C)(C)CN23)cc1 (stereo not drawn),15.2
13,Cc1ccc(-c2noc(C3CCCCC3)n2)cc1,16.1
14,CCOC(=O)C1=C(COC(=O)COc2ccc(OCC)cc2)NC(=O)NC1C (stereo not drawn),5.59
15,COc1cc(C)c(CN2CCC(Cc3ccccc3)CC2)cc1C,-45.3
16,COc1ccc(NC(=O)N2CCC3(CC2)OCCO3)cc1,-0.264
17,CS(=O)(=O)N(CC(=O)N1CCC(C(N)=O)CC1)c1ccc(Cl)c(C(F)(F)F)c1,-5.29
18,O=C(NCCN1CCOCC1)c1ccc2c(c1)N(Cc1ccccc1F)C(=O)c1ccccc1S2(=O)=O,12.5
19,Cn1cccc1C(=O)NC(=O)COC(=O)c1ccc(O)cc1,0.666
20,CCC1CCCCN1S(=O)(=O)c1ccc(NC(=O)c2snnc2C)cc1 (stereo not drawn),-0.105
21,Cc1cc(C(=O)OCn2nnc3ccccc3c2=O)c(C)o1,-6.92
22,CN(CC(=O)Nc1ccccc1Cl)C(=O)COC(=O)C1CC1,-2.87
23,CCN(CC)c1ccc(/C=C2/C(=O)c3ccc(C(=O)O)cc3C2=O)cc1,2.24
24,Cc1cc(/C=C(\C#N)C(=O)Nc2ccccc2)c(C)n1-c1cccnc1,8.27
